# From publication PMC7819943, “Rice protein-binding microarrays: a tool to detect cis-acting elements near promoter regions in rice”
# Some of the results follow.
# Molecular target: T1, OsWOX13 (Oryza sativa, UniProt Q5QMM3 1-267)
# T1 sequence: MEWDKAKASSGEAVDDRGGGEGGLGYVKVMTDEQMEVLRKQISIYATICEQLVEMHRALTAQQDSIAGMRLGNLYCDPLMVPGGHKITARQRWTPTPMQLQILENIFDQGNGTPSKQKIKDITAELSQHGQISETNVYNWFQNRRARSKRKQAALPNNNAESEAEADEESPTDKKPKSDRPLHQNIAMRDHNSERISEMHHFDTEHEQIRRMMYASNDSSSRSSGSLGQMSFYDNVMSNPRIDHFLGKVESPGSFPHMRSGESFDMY
# Experiment: protein-binding microarray (RPBM); PBS, 2% BSA, 51.3 ng/ul salmon testes DNA, 50 uM zinc acetate, 200 nM TF, 25 C, 1 h; high values mean tight binding
# Details: protein: recombinant; tags: N-terminal polyhistidine and DsRed monomer fusion (pET32a); label: CyDye5-dUTP incorporated in the synthesized complementary strand; 3' TTTTT single-stranded linker to array surface; dsDNA, one strand shown
# How it was run: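 Polyhistidine-tagged DsRed fusions of transcription factors, joined at the N-terminus, were expressed in E. coli BL21-CodonPlus and isolated on Ni–NTA. They were incubated at 200 nM for 1 h at 25 °C on a custom Agilent array, double-stranded and BSA-blocked, in PBS with 2% BSA, salmon testes DNA and 50 µM zinc acetate. The binding signal is per-feature fluorescence intensity (arbitrary units) read on an Axon 4000B scanner after washing.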
row,Sequence,binding signal
1,TTCTTGTTAGCAACAAATTGACATATTGCTCGGCACATCCCGGAGTCACCTAGTGCAG,12900 fluorescence intensity (a.u.)
2,TTTAATATTTAATTAATCATGCGTTAGTACCTATTTAGGTCGGAGTCACCTAGTGCAG,14400 fluorescence intensity (a.u.)
3,ACTTTCAATTGACAGAATTACGTCTGGAACATGAAGTTATCGGAGTCACCTAGTGCAG,29000 fluorescence intensity (a.u.)
4,AACTGAAGCCTTAATTAATTTCTCTATCCAGGTAGCGCCCCGGAGTCACCTAGTGCAG,11100 fluorescence intensity (a.u.)
5,GTTTCCTGACGTTTGATTTGCTTTGTATTGCAGGCTGTGACGGAGTCACCTAGTGCAG,4990 fluorescence intensity (a.u.)
6,AGAGTTAAAATAGACTGCGGGCCTGTTTAGTTCATACCAACGGAGTCACCTAGTGCAG,4180 fluorescence intensity (a.u.)
7,TGATTGTATAATACAATTACAATATGATTGTATTTGGAAGCGGAGTCACCTAGTGCAG,4380 fluorescence intensity (a.u.)
8,TATTTAATTTATCTCTCATTACATTTTGAATATATGCAGACGGAGTCACCTAGTGCAG,30400 fluorescence intensity (a.u.)
9,TATTACATGCAAATTATAGTGTAATTATACTACGATTGTACGGAGTCACCTAGTGCAG,14900 fluorescence intensity (a.u.)
10,ATCTAATTTTGGAATTTTAAGTTTAAAACAAGTCTCCAACCGGAGTCACCTAGTGCAG,13500 fluorescence intensity (a.u.)
11,GGCAAATTTTAGTAGGGTAACAATCCAAATTGGCCCAGAGCGGAGTCACCTAGTGCAG,4180 fluorescence intensity (a.u.)
12,TTGAATGACAATTAGTTCGAAACCAGAACATACTAATGACCGGAGTCACCTAGTGCAG,20600 fluorescence intensity (a.u.)
13,ATCCCGAGTACATCAATAGTTCAATCATCAAATACAGGAACGGAGTCACCTAGTGCAG,3230 fluorescence intensity (a.u.)
14,CACTTGGTAATTACTTCTACTATGTCATCCTTATCATAATCGGAGTCACCTAGTGCAG,17700 fluorescence intensity (a.u.)
15,TAATATCACCGTAAATTTACCCTGTTAGGATCAGTACAAACGGAGTCACCTAGTGCAG,5610 fluorescence intensity (a.u.)
16,AACAAAATTCTAACAGTTTGACAGGATAGCACCAAGAGCACGGAGTCACCTAGTGCAG,4590 fluorescence intensity (a.u.)
17,CTAAACATAATTAGCATACTATGACATCAATAGAAACGTTCGGAGTCACCTAGTGCAG,35100 fluorescence intensity (a.u.)
18,TGTTATAGTGTAATTATATATAATTACATTATAGCATATACGGAGTCACCTAGTGCAG,21600 fluorescence intensity (a.u.)
19,TTGATTAATTCATTAATCGATCTTGCTCCTCTCGCGGCCCCGGAGTCACCTAGTGCAG,38500 fluorescence intensity (a.u.)
20,AAACTATATAATTAGAAACACGAGGATGATAATGTTTGGTCGGAGTCACCTAGTGCAG,4910 fluorescence intensity (a.u.)
21,GTTAGACTGACATGTGGGGCAGCGTGGGTTCCACCATTATCGGAGTCACCTAGTGCAG,6330 fluorescence intensity (a.u.)

row,Sequence,binding signal
1,AATCAATCAATCTGACGGAAACCACGCATTTTGCAACTTGCGGAGTCACCTAGTGCAG,46300 fluorescence intensity (a.u.)
2,CTAGTTTACACATTGATTATTATCGACCGTGAATATTTTACGGAGTCACCTAGTGCAG,5360 fluorescence intensity (a.u.)
3,GTAATTACTTAATCCATCCCCTATTCAAAAGTTTGTGAATCGGAGTCACCTAGTGCAG,5790 fluorescence intensity (a.u.)
4,TTTAGGGAATTGCAGTTGACTGACTTTAGCAAATACGAACCGGAGTCACCTAGTGCAG,6470 fluorescence intensity (a.u.)
5,CTCCTTGATCTAATTAGCACGCACTACTATATCTCACCTACGGAGTCACCTAGTGCAG,26600 fluorescence intensity (a.u.)
6,ATTTTAATTTTAATTATTAATACTCCATTAGCATTTAGTTCGGAGTCACCTAGTGCAG,18200 fluorescence intensity (a.u.)
7,TTTTGATTGGCCGAGGAGAAGGCGAAACAGACTGCCACTGCGGAGTCACCTAGTGCAG,53800 fluorescence intensity (a.u.)
8,CTTAAATTACGTACTGATGCATATAGTTATCTGCTATCATCGGAGTCACCTAGTGCAG,23500 fluorescence intensity (a.u.)
9,TACTGGTGTACAATTTATAATTAATTAAAATATGGAATCACGGAGTCACCTAGTGCAG,8120 fluorescence intensity (a.u.)
10,GATTAACTGTGTTCTTTTCCAGCTATACATTGTACGTGTACGGAGTCACCTAGTGCAG,3400 fluorescence intensity (a.u.)
11,GATATGGTAATTTAGTGTCCATTATGGTGTTTCTTAATTGCGGAGTCACCTAGTGCAG,6660 fluorescence intensity (a.u.)
12,TACCATATATTGGGCCCCAATCTCAATAGAAGATTCTTCTCGGAGTCACCTAGTGCAG,10900 fluorescence intensity (a.u.)
13,ATGAGCTAATCATATATGATGATATTTGTTTATATTAGAACGGAGTCACCTAGTGCAG,7800 fluorescence intensity (a.u.)
14,GTATTGACAGCCACTCGGCCTATCCATTTTGCGTCCAATACGGAGTCACCTAGTGCAG,10700 fluorescence intensity (a.u.)
15,TGAAATTAATGCTGCAATTTTCAGCTTTGAGCTTGCAAGCCGGAGTCACCTAGTGCAG,3850 fluorescence intensity (a.u.)
16,TCTAAATTGTATTTCTATATGGACTCTAGTCTCCTCTTCACGGAGTCACCTAGTGCAG,14000 fluorescence intensity (a.u.)
17,TATTTTAGATTGATATACAATCTTTTGTGGTGTTAGCACTCGGAGTCACCTAGTGCAG,52900 fluorescence intensity (a.u.)
18,AGCGATGGTGGTGGTGGTGGTGGTGGTGGCTGGGTTGCTTCGGAGTCACCTAGTGCAG,7480 fluorescence intensity (a.u.)
19,TTAATTGTATCCTTCAACTCTACTACTCTACGGCCATTACCGGAGTCACCTAGTGCAG,4180 fluorescence intensity (a.u.)
20,ATATAATCATCACTATAAATAATAATTAAGATTTCCTATCCGGAGTCACCTAGTGCAG,10200 fluorescence intensity (a.u.)
21,CTCCATATTAGAGATATTGATAGATATACTAGCTAGCTGCCGGAGTCACCTAGTGCAG,4390 fluorescence intensity (a.u.)
